We go through 24 compounds from the supplement of paper PMC8183993.

Structures can show the parent of a compound that is named as a salt. ± gives the standard deviation of the averaged measurements. The full ranking holds about 3,200 compounds; the median of “nuclei count (viability) relative to DMSO” is about 99, and the lowest 2% start at about 16. The list shows a part of the results.

The test relates to U2OS. The experiment in a line: nuclei count (viability) relative to DMSO (% of DMSO); higher = more viable cells. Conditions: 10 µM; 24 h. The method, then:
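Primary image-based screen in U2OS cells: compounds at 10 uM for 24 h, then a 1 h o-propargyl-puromycin (OPP) pulse, click labelling, and high-throughput microscopy. Mean cytoplasmic OPP intensity and nuclei count were normalised to DMSO wells within each plate (DMSO = 100) and averaged over triplicate plates.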
With `Cc1sc2c(c1C)C(c1ccc(Cl)cc1)=N[C@@H](CC(=O)OC(C)(C)C)c1nnc(C)n1-2`, the nuclei count is 87.6.
For `C=CCN1CC[C@]2(C)c3cc(O)ccc3C[C@H]1C2C` (single isomer, unassigned; (+)) the value was 94.7; for `CCC(=O)O[C@H]1CC[C@H]2[C@@H]3CCC4=CC(=O)CC[C@]4(C)[C@H]3CC[C@]12C` [Testosterone propionate], 97.1.
Compound `CCOc1cncc(/C=C/CCNC)c1` [TC 2559 difumarate] registered a nuclei count of 97.2.
`COc1ccc(OC)c(C(O)C(C)N)c1` (centres undefined) [Methoxamine hydrochloride] came in with a nuclei count of 91.4.
For `Ic1cncc(OC[C@@H]2CCN2)c1` the value was 97.8; for `C(=C\c1ccccc1)/CN1CCN(CCOC(c2ccccc2)c2ccccc2)CC1`, 105.
In the case of `C[C@@H]1CN([C@H]2CC[C@](C#N)(c3ccc(F)cc3)CC2)CC[C@]1(C(=O)O)c1ccccc1` [Levocabastine hydrochloride] it was 87.2.
For `c1ccc2sc(C3(N4CCCCC4)CCCCC3)cc2c1` [BTCP maleate] the value was 106; for `O=C(CCCN1CCC(n2c(=O)[nH]c3ccccc32)CC1)c1ccc(F)cc1` [Benperidol], 85.4.
The compound `C=CCC1(CC(C)C)C(=O)NC(=O)NC1=O` [Butalbital] yielded a nuclei count of 107.
In the case of `O=C1C2CCN(CC2)C1(CO)CO`, the nuclei count was 91.8.
Compound `N[C@@H]1C[C@H]1c1ccccc1.N[C@H]1C[C@@H]1c1ccccc1` [Tranylcypromine hemisulfate] gave a nuclei count of 108.
In the case of `C[C@]12CCC(=O)C=C1CC[C@@H]1[C@@H]2CC[C@]2(C)C(=O)CC[C@@H]12` [Androstenedione] it was 87.3; in that of `OC(c1ccccc1)(c1ccccc1)C1CCNCC1` [Azacyclonol], 108.
Compound `COc1cc(N)c(Cl)cc1C(=O)NC1CN2CCC1CC2` (centres undefined) [Zacopride hydrochloride] displayed a nuclei count of 98.7.
In the case of `COc1cc(OC)c(OC)cc1C=O` [Asaraldehyde (Asaronaldehyde)] it was 109.
`C[N+]1(C)CCCC(OC(=O)C(O)(c2ccccc2)c2ccccc2)C1` (centres undefined) [Mepenzolate bromide]: the nuclei count was determined as 99.5.
In the case of `N=C(NCc1ccc(Cl)cc1)SCCCc1c[nH]cn1` [Clobenpropit dihydrobromide], the nuclei count amounted to 98.3.
`CCC1(C)CC(=O)NC(=O)C1` [Bemegride] returned a nuclei count of 106.
In the case of `C[C@@]12C(=O)OC(=O)[C@]1(C)[C@H]1CC[C@@H]2O1` [Cantharidin] it was 84.8 ± 4.8; in that of `CCCC(C)(COC(N)=O)COC(=O)NC(C)C` (centres undefined) [Carisoprodol], 101.
For `Cc1ccccc1-n1c(Cn2ncc3c(N)ncnc32)nc2cccc(C)c2c1=O`, the nuclei count was determined as 91.1.
As to `C/C(O)=C(\C#N)C(=O)Nc1cc(Br)ccc1Br`, the nuclei count was 94.3.
